Results are given in words; binding and its absence hold for the method and conditions named. For some of these results: Binding seen in cells or lysates may run through a third protein. Some binding calls cover weakened binding; strength is not graded here. For some of these results: Tags and fused reporters may be left off the sequences shown.
T1: YFP-R6 S74A (human) (UniProt O95685)
T1 sequence: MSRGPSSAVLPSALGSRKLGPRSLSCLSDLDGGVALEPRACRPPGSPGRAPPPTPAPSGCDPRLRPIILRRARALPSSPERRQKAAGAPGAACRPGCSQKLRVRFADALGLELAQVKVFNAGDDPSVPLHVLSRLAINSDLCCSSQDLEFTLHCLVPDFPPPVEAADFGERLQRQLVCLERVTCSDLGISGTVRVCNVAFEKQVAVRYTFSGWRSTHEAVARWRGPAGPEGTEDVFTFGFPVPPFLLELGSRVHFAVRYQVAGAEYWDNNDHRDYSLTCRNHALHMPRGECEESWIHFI

Sequences of proteins named here, by UniProt entry; tags and fusion partners are left off.
UniProt P62258: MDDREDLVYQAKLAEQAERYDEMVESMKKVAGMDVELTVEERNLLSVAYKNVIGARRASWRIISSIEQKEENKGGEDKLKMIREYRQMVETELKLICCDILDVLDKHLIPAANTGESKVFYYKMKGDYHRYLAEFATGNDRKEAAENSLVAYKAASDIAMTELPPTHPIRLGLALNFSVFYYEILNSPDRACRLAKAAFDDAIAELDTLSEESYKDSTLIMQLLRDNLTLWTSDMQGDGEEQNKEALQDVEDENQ
UniProt P62136: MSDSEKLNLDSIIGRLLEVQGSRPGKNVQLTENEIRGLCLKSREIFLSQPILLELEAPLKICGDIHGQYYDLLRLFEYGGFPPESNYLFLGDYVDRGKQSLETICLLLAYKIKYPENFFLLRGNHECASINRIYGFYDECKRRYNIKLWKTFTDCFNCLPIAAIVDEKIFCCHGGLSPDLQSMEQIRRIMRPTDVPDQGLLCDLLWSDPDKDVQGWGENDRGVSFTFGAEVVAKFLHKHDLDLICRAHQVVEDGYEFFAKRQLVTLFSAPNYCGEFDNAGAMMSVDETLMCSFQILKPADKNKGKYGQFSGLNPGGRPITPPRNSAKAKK

T2: YFP-R6 WDNAD (N270A) (human) (UniProt O95685)
T2 sequence: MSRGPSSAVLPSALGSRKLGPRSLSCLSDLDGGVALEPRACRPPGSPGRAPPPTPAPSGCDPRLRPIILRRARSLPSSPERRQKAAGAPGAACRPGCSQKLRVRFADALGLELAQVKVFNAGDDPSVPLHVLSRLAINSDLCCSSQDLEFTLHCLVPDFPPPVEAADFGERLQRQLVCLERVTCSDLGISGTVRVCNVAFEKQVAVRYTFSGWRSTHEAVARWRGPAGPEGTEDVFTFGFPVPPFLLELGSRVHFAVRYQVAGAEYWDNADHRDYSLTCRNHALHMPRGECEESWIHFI

T3: YFP-R6 RAHA (V253A-F255A) (human) (UniProt O95685)
T3 sequence: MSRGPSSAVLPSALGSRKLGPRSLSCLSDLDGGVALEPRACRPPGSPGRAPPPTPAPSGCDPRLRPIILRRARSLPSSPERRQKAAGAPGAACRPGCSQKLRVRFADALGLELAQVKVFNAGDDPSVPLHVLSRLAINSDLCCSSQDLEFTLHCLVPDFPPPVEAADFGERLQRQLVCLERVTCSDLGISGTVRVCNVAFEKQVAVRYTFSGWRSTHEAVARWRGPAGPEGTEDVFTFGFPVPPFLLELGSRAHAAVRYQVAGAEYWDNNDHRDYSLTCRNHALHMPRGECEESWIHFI

T4: YFP-R6 RARA (V103A-F105A) (human) (UniProt O95685)
T4 sequence: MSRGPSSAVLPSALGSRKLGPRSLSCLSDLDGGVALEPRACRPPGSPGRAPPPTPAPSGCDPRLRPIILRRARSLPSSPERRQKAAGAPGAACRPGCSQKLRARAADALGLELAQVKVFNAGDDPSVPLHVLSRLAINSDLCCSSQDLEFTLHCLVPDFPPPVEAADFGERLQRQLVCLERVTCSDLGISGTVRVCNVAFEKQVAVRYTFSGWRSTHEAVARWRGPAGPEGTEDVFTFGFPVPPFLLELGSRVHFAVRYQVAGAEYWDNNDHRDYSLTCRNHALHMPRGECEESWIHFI

T5: YFP-R6 wild type (PPP1R3D) (human) (UniProt O95685)
T5 sequence: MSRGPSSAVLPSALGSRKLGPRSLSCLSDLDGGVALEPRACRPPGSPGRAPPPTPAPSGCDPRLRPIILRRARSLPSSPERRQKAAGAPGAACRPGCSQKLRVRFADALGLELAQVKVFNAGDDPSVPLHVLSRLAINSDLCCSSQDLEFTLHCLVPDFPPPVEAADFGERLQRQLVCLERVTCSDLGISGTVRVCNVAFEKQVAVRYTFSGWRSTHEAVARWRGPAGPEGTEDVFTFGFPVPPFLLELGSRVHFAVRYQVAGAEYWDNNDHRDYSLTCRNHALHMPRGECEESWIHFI

T6: YFP-R6 S25A (human) (UniProt O95685)
T6 sequence: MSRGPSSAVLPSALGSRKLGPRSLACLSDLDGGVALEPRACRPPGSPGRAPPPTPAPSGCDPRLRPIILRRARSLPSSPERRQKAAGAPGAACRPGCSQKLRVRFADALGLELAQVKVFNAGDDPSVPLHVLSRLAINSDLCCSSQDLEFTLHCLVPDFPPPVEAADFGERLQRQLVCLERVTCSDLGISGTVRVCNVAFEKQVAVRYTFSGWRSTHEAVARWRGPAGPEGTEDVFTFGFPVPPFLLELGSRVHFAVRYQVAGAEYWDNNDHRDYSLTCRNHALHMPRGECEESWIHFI

T7: LexA-R6 wild type (PPP1R3D) (human) (UniProt O95685)
T7 sequence: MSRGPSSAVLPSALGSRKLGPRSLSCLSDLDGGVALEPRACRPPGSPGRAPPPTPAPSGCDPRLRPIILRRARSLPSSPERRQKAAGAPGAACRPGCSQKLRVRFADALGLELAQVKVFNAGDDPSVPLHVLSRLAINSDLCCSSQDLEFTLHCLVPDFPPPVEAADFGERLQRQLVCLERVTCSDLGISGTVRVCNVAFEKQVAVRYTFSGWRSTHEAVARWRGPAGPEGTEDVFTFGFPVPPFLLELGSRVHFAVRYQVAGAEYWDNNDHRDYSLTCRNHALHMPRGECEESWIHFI

T8: LexA-R6 RARA (V103A-F105A) (human) (UniProt O95685)
T8 sequence: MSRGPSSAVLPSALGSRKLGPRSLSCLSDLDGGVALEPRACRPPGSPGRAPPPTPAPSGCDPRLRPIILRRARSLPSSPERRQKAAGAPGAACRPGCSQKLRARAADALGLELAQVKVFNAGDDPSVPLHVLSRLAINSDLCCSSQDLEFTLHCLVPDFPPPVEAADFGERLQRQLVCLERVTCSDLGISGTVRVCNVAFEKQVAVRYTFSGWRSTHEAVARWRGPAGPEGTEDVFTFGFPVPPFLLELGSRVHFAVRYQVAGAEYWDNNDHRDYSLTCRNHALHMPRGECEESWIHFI

T9: LexA-R6 WDNAD (N270A) (human) (UniProt O95685)
T9 sequence: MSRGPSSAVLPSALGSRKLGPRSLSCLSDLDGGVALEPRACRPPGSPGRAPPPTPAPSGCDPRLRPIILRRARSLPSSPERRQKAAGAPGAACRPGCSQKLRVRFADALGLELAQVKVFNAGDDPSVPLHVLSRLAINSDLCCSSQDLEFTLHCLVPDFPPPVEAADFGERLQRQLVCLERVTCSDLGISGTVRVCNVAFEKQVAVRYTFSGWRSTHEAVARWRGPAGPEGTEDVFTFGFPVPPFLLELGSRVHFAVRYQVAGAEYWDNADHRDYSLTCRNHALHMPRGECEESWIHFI

T10: LexA-R6 S74A (human) (UniProt O95685)
T10 sequence: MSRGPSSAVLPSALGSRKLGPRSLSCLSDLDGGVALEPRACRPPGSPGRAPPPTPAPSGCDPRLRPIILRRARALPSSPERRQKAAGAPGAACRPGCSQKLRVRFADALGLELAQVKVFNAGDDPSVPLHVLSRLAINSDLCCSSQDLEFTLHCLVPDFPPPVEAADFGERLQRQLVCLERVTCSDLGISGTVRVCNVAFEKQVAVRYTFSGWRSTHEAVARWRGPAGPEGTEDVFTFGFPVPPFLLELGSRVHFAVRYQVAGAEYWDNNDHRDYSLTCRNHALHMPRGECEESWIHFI

T11: LexA-R6 S25A (human) (UniProt O95685)
T11 sequence: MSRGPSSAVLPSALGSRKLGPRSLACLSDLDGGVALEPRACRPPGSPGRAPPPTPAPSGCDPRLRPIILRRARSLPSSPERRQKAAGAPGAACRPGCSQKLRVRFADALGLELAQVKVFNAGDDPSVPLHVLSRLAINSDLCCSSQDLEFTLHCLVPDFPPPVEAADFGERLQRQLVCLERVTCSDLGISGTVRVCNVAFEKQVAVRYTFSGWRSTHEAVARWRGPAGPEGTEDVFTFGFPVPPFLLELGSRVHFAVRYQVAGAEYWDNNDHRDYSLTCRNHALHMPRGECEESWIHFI

T12: LexA-R6 WANNA (D268A-D271A) (human) (UniProt O95685)
T12 sequence: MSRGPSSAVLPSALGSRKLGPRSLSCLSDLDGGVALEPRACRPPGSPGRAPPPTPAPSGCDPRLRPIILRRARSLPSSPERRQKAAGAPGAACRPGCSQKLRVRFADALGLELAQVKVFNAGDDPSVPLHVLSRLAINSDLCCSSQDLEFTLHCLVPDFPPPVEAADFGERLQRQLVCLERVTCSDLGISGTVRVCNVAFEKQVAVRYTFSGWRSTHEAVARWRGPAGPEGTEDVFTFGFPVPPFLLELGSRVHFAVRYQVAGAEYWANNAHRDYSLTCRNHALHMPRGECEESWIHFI


Key:
YFP-R6 S74A (human) = biological target: T1, YFP-R6 S74A (human); experiment: co-IP; GFP-Trap: lysates of Hek293 cells transfected with YFP-R6 forms, 2 mg of supernatant with GFP-Trap_A beads 10 min at 4°C (25 mM Tris-HCl pH 7.5, 150 mM NaCl, 0.5% NP-40); endogenous partners found by Western blotting
[1] = biological target: T2, YFP-R6 WDNAD (N270A) (human); experiment: as above
[2] = biological target: T3, YFP-R6 RAHA (V253A-F255A) (human); experiment: as above
[3] = biological target: T4, YFP-R6 RARA (V103A-F105A) (human); experiment: as above
[4] = biological target: T5, YFP-R6 wild type (PPP1R3D) (human); experiment: as above
YFP-R6 S25A (human) = biological target: T6, YFP-R6 S25A (human); experiment: as above
[5] = biological target: T7, LexA-R6 wild type (PPP1R3D) (human); experiment: two-hybrid; yeast THY-AP4 co-transformed with pBTM-R6 (LexA-R6 wild type or mutants) and pACT2 fusions (GAD-PP1α, GAD-laforin, GAD-14-3-3ε); β-galactosidase activity in permeabilized cells, Miller units
[6] = biological target: T8, LexA-R6 RARA (V103A-F105A) (human); experiment: as above
[7] = biological target: T9, LexA-R6 WDNAD (N270A) (human); experiment: as above
LexA-R6 S74A (human) = biological target: T10, LexA-R6 S74A (human); experiment: as above
LexA-R6 S25A (human) = biological target: T11, LexA-R6 S25A (human); experiment: as above
[8] = biological target: T12, LexA-R6 WANNA (D268A-D271A) (human); experiment: as above

Row | binding (YFP-R6 S74A (human)) | binding [1] | binding [2] | binding [3] | binding [4] | binding (YFP-R6 S25A (human)) | binding [5] | binding [6] | binding [7] | binding (LexA-R6 S74A (human)) | binding (LexA-R6 S25A (human)) | binding [8] | Molecule
1 | no binding | binds | binds | binds | binds | binds |  |  |  |  |  |  | endogenous 14-3-3ε protein (from UniProt P62258 1-255)
2 |  |  |  |  |  |  | binds | no binding | binds | binds | binds |  | GAD-PP1α (PP1 catalytic subunit) (from UniProt P62136 1-330) (enzyme)

The next lines start with the molecule.

Row | Molecule | binding (YFP-R6 S74A (human)) | binding [1] | binding [2] | binding [3] | binding [4] | binding (YFP-R6 S25A (human)) | binding [5] | binding [6] | binding [7] | binding (LexA-R6 S74A (human)) | binding (LexA-R6 S25A (human)) | binding [8]
3 | endogenous PP1c catalytic subunit (from UniProt P62136 1-330) (enzyme) | binds | binds | binds | no binding | binds | binds |  |  |  |  |  | 
4 | GAD-14-3-3ε (from UniProt P62258 1-255) |  |  |  |  |  |  | binds | binds | binds | no binding | binds | 
5 | GAD-laforin (enzyme, UniProt O95278 1-331) MRFRFGVVVPPAVAGARPELLVVGSRPELGRWEPRGAVRLRPAGTAAGDGALALQEPGLWLGEVELAAEEAAQDGAEPGRVDTFWYKFLKREPGGELSWEGNGPHHDRCCTYNENNLVDGVYCLPIGHWIEATGHTNEMKHTTDFYFNIAGHQAMHYSRILPNIWLGSCPRQVEHVTIKLKHELGITAVMNFQTEWDIVQNSSGCNRYPEPMTPDTMIKLYREEGLAYIWMPTPDMSTEGRVQMLPQAVCLLHALLEKGHIVYVHCNAGVGRSTAAVCGWLQYVMGWNLRKVQYFLMAKRPAVYIDEEALARAQEDFFQKFGKVRSSVCSL |  |  |  |  |  |  | binds | binds | binds | binds | binds | no binding
